Assay results from the supplement of paper PMC9446081.
The whole screen tested about 39,000 compounds, of which about 220 (0.56%) showed activity. The list shows a part of the results.
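Note: static incubation at 37 °C against the wild-type strain, values averaged over two biological replicates.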

These compounds were tested on Escherichia coli K-12 BW25113 (assay: relative growth (OD600 normalised to plate interquartile mean) (fraction); higher = less growth inhibition, active = 0.2 or less). Details: 50 µM; LB; incubation time: overnight (16-24 h).
`COc1cccc(S(=O)(=O)Nc2ccc3c(c2)[C@@H]2C[C@@H](CC(=O)NCCc4ccccc4)O[C@H](CO)[C@@H]2O3)c1` was tested, and the relative growth was inactive: 0.976. With `C[C@@H]1CN([C@@H](C)CO)S(=O)(=O)c2ccc(C#Cc3cccnc3)cc2O[C@H]1CN(C)C(=O)CN(C)C` the relative growth was inactive: 0.908. For `Cn1ccnc1C(=O)NCc1cnc2n1CCNCC2`, the relative growth was inactive: 0.999. For `C[C@H]1CN([C@@H](C)CO)C(=O)c2cc(NC(=O)CCCN(C)C)ccc2O[C@@H]1CN(C)C(=O)NC1CCCCC1`, the relative growth was inactive: 1.02. `COCCOC(=O)N1C(=O)[C@@]2(c3cc(C#CC4(O)CCCCCC4)ccc31)[C@H](C(=O)N1CCCCCCC1)[C@H]1C(=O)O[C@H](c3ccccc3)[C@H](c3ccccc3)N1[C@@H]2c1ccc(OCCO)cc1` was tested, and the relative growth was inactive: 1.06. `C[C@@H]1CN([C@@H](C)CO)C(=O)Cc2cc(NC(=O)CCCN(C)C)ccc2O[C@H]1CN(C)S(=O)(=O)c1ccccc1` was tested, and the relative growth was inactive: 0.938. In the case of `CC(C)C1=CC2=CCC3C(C)(C(=O)O)CCCC3(C)C2CC1` (stereo unspecified), the relative growth is reported as inactive: 1.07. `C[C@H](CO)N1C[C@H](C)[C@@H](CN(C)S(=O)(=O)c2ccc(Cl)cc2)Oc2c(NC(=O)C3CC3)cccc2C1=O` was tested, and the relative growth was inactive: 1.01. In the case of `O=C(C[C@@H]1CC[C@H]2[C@@H](COC[C@@H](O)CN2C(=O)c2ccc(F)cc2)O1)NCCCN1CCOCC1`, the relative growth is reported as inactive: 1.01. For `COCC(=O)Nc1ccc2c(c1)OC[C@H](C)N(C(=O)Cc1cccnc1)C[C@H](C)[C@H](OC)CN(C)C2=O`, the relative growth was inactive: 0.994. In the case of `C[C@H](CO)N1C[C@H](C)[C@@H](CN(C)Cc2ccc(C(F)(F)F)cc2)Oc2ccc(NS(C)(=O)=O)cc2CC1=O`, the relative growth is reported as inactive: 0.897. In the case of `CC(C)NC(=O)[C@@]1(C)c2ccccc2C(=O)N(Cc2cc(C(F)(F)F)cc(C(F)(F)F)c2)[C@H]1c1ccc(CO)cc1`, the relative growth is reported as inactive: 0.971. For `COc1cccc(C(=O)Nc2ccc3c(c2)C(=O)N(C)[C@H]2CC[C@@H](CC(=O)NCCCN4CCOCC4)O[C@@H]2CO3)c1`, the relative growth was inactive: 0.989. With `CNC[C@@H]1Oc2cc(C#CC(C)(C)O)ccc2S(=O)(=O)N([C@H](C)CO)C[C@H]1C` the relative growth was inactive: 1.04. With `C[C@H]1CCCCO[C@H](CN(C)S(=O)(=O)c2cccs2)[C@@H](C)CN([C@@H](C)CO)C(=O)c2cc(NS(C)(=O)=O)ccc2O1` the relative growth was inactive: 0.989. `C=CCOC(=O)[C@@H]1[C@H]2C(=O)O[C@H](c3ccccc3)[C@H](c3ccccc3)N2[C@H](c2ccc(OCCOC(=O)[C@H]3C[C@H]4C(=O)N[C@@H](CCCC[N+](C)(C)C)C(=O)N4[C@H]3c3cccc(OCCO)c3)cc2)[C@@]12C(=O)Nc1ccccc12` was tested, and the relative growth was inactive: 0.962.
